Results: PubChem BioAssay AID360 (National Center for Advancing Translational Sciences (NCATS), 2006)
The whole screen tested about 48,000 compounds, of which about 550 (1.1%) were called active. Not shown: some 4% with an inconclusive outcome. Cut-off read from the data, not from the text of the source: active = potency below about 15 µM; inconclusive = mostly about 16 µM to 33 µM; inactive = weaker than that. This is one part of the list.

Target: Lysosomal acid glucosylceramidase (Homo sapiens) (UniProt P04062)
Chain of UniProt P04062 (P04062 whole entry, looked up): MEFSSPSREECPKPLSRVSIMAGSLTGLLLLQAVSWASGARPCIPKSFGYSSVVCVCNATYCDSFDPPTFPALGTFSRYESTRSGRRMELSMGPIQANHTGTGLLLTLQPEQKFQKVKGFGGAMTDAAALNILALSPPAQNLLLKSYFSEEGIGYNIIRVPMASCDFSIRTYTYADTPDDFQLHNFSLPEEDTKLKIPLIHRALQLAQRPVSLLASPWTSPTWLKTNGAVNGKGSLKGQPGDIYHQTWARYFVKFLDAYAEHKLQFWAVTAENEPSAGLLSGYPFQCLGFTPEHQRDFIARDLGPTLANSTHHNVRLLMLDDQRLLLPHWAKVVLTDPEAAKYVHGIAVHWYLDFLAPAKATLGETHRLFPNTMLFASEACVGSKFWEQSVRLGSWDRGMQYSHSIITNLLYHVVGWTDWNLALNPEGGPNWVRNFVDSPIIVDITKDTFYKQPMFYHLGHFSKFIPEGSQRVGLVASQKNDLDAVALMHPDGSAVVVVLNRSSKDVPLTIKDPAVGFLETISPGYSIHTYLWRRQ
Test: Glucocerebrosidase;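 note: the screen sought inhibitors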
Conditions: purified enzyme, resorufin glucoside fluorescence (screen aimed at inhibitors), 20 min
Summary of the method: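 Wild-type enzyme at 0.2 nM final in 50mM citric acid/KH2PO4, 10mM sodium taurocholate, 0.01% tween-20, pH 5.9, with resorufin beta-D-glucopyranoside at 30 uM final. Compounds titrated, 20 min at RT, red fluorescence read; AC50 from titration.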
Potency is the fitted concentration of half-maximal effect.

Potency, inactive:
O=C(COc1ccc(S(=O)(=O)NC2CCCCC2)cc1)NCc1ccccn1 > 76.9 µM
OC1(Cc2ccn[nH]2)CCCCC1
CCOC(=O)N1CCN(C(=O)c2oc3ccc(S(=O)(=O)N4CCOCC4)cc3c2C)CC1 > 76.9 µM
CC1(C)Cc2c(sc3nn[nH]c(=O)c23)CO1 > 76.9 µM
CCn1c(Cn2nnc(-c3ccccc3)n2)nnc1SCC(=O)Nc1cccc(C)c1C > 76.9 µM
CS(=O)(=O)c1ccc2nc(NC(=O)CN3CCN(Cc4ccccc4)CC3)sc2c1 > 76.9 µM
CN(C)S(=O)(=O)c1ccccc1C#N > 76.9 µM
Cc1cccc(C)c1NC(=O)CSc1nnc(Cn2nnc(-c3ccccc3)n2)n1-c1ccccc1 > 76.9 µM
COC(=O)c1cc(NC(=O)CN2CCOCC2)cc(C(=O)OC)c1 > 76.9 µM
Clc1ccc(-c2nnc3sc(-c4ccc(Br)o4)nn23)c(Cl)c1 > 76.9 µM
COC(=O)c1sc(N)c(C(=O)OC)c1COC(=O)c1c(C)noc1C > 76.9 µM
O=C(NCc1ccco1)c1ccc(OCC2CCCO2)cc1 (stereo unspecified) > 76.9 µM
COC(=O)c1ccc(CSc2nc(N)cc(N)n2)cc1 > 76.9 µM
CCCCNC(=O)c1c(N)n(/N=C/c2ccccn2)c2nc3ccccc3nc12 > 76.9 µM
Cc1cc(C(=O)O)c(=O)[nH]c1C > 76.9 µM
CC(=O)c1ccc(NC(=O)N[C@@H](Cc2ccccc2)C(=O)O)cc1 > 76.9 µM
CCCCCCn1c(CN2CCN(C(=O)OCC)CC2)nc2c1c(=O)n(C)c(=O)n2C > 76.9 µM
CCOC(=O)Cc1csc(NC(=O)c2csc(C)c2)n1 > 76.9 µM
CC(=O)c1cccc(NC(=O)C2CCN(S(C)(=O)=O)CC2)c1 > 76.9 µM
CCn1ncc(Br)c1C(=O)Nc1sc2c(c1C(N)=O)CCC2 > 76.9 µM
COCCn1c(COc2ccc(C)cc2)nc2ccccc21 > 76.9 µM
CCOC(=O)/C=C1\SCC(=O)N1Cc1nnc(-c2ccccc2Br)o1 > 76.9 µM
CCCc1cc(=O)[nH]c(SCC(=O)Nc2ccc(OC(F)F)cc2)n1 > 76.9 µM
Cc1c(Cc2ccccc2)c(=O)oc2c(CN(C)C)c(O)c(Cl)cc12 > 76.9 µM
CC(C)(C)N1CC(COc2ccccc2)OC1=O (stereo unspecified) > 76.9 µM
COC(=O)c1cc(OC)c(OC)cc1NC(=O)c1ccco1 > 76.9 µM
Cc1cc2nc(C3CCN(Cc4nnnn4Cc4cccs4)CC3)[nH]c2cc1C > 76.9 µM
COc1ccc(C2SCC(=O)N2c2c(C)n(C)n(-c3ccccc3)c2=O)c(OC)c1 (stereo unspecified) > 76.9 µM
COc1cc2c(C(=O)N3CCN(Cc4ccc5c(c4)OCO5)CC3)cn(C)c(=O)c2cc1OC > 76.9 µM
CCn1c(SCC(=O)Nc2ccc3c(c2)c2ccccc2n3CC)nnc1-c1cnccn1 > 76.9 µM
CCOc1ccc(NC(=O)C2CC=CCC2C(=O)O)cc1 (stereo unspecified) > 76.9 µM
CCn1c(SCC(=O)Nc2cc(OC)ccc2OC)nnc1C1CCCCC1 > 76.9 µM
COC(=O)CN1C(=O)C2(OCCCO2)c2cc(Br)ccc21 > 76.9 µM
O=S(=O)(CCSc1nc2ccccc2o1)c1nc2ccccc2s1 > 76.9 µM
CC(C)CC(NC(=O)COc1ccccc1)C(=O)O (stereo unspecified) > 76.9 µM
O=C(CCCCn1c(=O)c2ccccc2n(CC(=O)Nc2ccccc2)c1=O)NCc1ccco1 > 76.9 µM
CO/C([O-])=N/c1c[n+](-c2ccc(C)cc2)no1 > 76.9 µM
Cc1c(C(=O)NCc2ccccc2Cl)oc2c1C(=O)CCC2 > 76.9 µM
CC1CCCN(Cc2nc3c(c(=O)n(C)c(=O)n3C)n2CCCc2ccccc2)C1 (stereo unspecified) > 76.9 µM
O=C(Nc1ccccn1)c1cccnc1 > 76.9 µM
CCn1c(SCC(=O)N2c3ccccc3Sc3ccccc32)nc2c1c(=O)n(C)c(=O)n2C > 76.9 µM
O=C(O)c1oc2ccccc2c1-n1cccc1 > 76.9 µM
CCCC(C)NS(=O)(=O)c1ccccc1 (stereo unspecified) > 76.9 µM
CC(NC(=O)c1cccc(C(F)(F)F)c1)C1CCCO1 (stereo unspecified) > 76.9 µM
CN(C)c1ccnc(NCc2ccccc2)c1C#N > 76.9 µM
Cc1ccc(NS(=O)(=O)c2cccc(C(=O)O)c2)c(C)c1 > 76.9 µM
